Data published in the antibiotic and cytotoxicity screens of Wong et al. (2023).
The other results are listed elsewhere or left out.

How the values were obtained:
HSkMC = human skeletal muscle cells; experiment: cytotoxicity call (relative viability < 0.9); conditions: 10 µM
HepG2 = experiment: cytotoxicity call (relative viability < 0.9); conditions: 10 µM
S. aureus RN4220 = experiment: growth inhibition call (relative growth <= 0.2); conditions: 50 µM

| Structure (SMILES) | cytotoxicity call (HSkMC) | cytotoxicity call (HepG2) | growth inhibition call (S. aureus RN4220) |
| --- | --- | --- | --- |
| CC(C)=CC1C(C(=O)OCc2cccc(Oc3ccccc3)c2)C1(C)C (configuration not stated) | inactive | inactive | inactive |
| CN(C)c1ccc(CCN)cc1 | inactive | inactive | inactive |
| CC(=O)N1CC[N+](C)(C)CC1 | inactive | inactive | inactive |
| C[C@H]1CN([C@@H](C)CO)C(=O)CCCn2nncc2CO[C@H]1CN(C)C(=O)Oc1cccc2ccccc12 | inactive | inactive | inactive |
| O=C(O)CC[N+](=O)[O-] | inactive | inactive | inactive |
| O=[N+]([O-])C(Br)(CO)CO [listing 1 of 2 here] | active | active | active |
| NC1CC1c1ccccc1.O=S(=O)(O)O (configuration not stated) | inactive | inactive | inactive |
| CN(C)[C@@H](CN)c1cn(C)c2ccccc12 | inactive | inactive | inactive |
| N[C@H]1Cc2ccccc2[C@@H]1O | inactive | inactive | inactive |
| NC1=NC(=O)N2C[C@@H]12 | inactive | inactive | inactive |
| O=C(C1CCCC1)N1C[C@@H]2CCNC[C@@H]21 | inactive | inactive | inactive |
| C[C@H]1CN([C@@H](C)CO)C(=O)CCCn2nncc2CO[C@H]1CN(C)C(=O)Oc1ccc2ccccc2c1 | inactive | inactive | inactive |
| CC1(C)C(=O)C=CC2(C)C1CC(O)C1(C)C2CCC2(C)C(c3ccoc3)OC(=O)C3OC321 (configuration not stated) | inactive | active | inactive |
| COc1ccc(O)c(C(C)(C)C)c1 | inactive | inactive | inactive |
| O=C(NCNC(=O)N[C@H]1C(=O)NC(=O)N1CO)N[C@H]1C(=O)NC(=O)N1CO | inactive | inactive | inactive |
| Cl.Oc1noc2c1CCNC2 | inactive | inactive | inactive |
| CC[C@@H](C)C(=O)O[C@H]1[C@H](O)[C@H]2[C@@H](CN3C[C@@H](C)CC[C@@H]3[C@@]2(C)O)[C@H]2C[C@]34O[C@]5(O)[C@@H](OC(=O)[C@@](C)(O)[C@@H](C)O)CC[C@@]3(C)[C@@H]5[C@@H](OC(C)=O)[C@@H](OC(C)=O)[C@@H]4[C@@]21O | inactive | active | inactive |
| COc1ccc(CN2CCNCC2)c(OC)c1OC.Cl.Cl | inactive | inactive | inactive |
| CCC(=O)CCCCC[C@@H]1NC(=O)[C@H]2CCCCN2C(=O)[C@H]([C@H](C)CC)NC(=O)[C@H](Cc2cn(OC)c3ccccc23)NC1=O | active | active | inactive |
| N/N=C(/N)NO | inactive | inactive | inactive |
| CC(=O)[C@]12[C@@H]3CC=C[C@H]1N2CC3 (some centres not stated) | inactive | inactive | inactive |
| CC(C(O)c1ccccc1)N(C)C (configuration not stated) | inactive | inactive | inactive |
| N#C[C@]1(O)CN2CCC1CC2 | inactive | inactive | inactive |

| Structure (SMILES) | cytotoxicity call (HSkMC) | cytotoxicity call (HepG2) | growth inhibition call (S. aureus RN4220) |
| --- | --- | --- | --- |
| Cn1cc([C@@H](O)c2ccccc2)[n+](C)c1 | inactive | inactive | inactive |
| CC(C)C[C@H](NC(=O)[C@H](CO)NC(=O)CNC(=O)[C@H](CC(C)C)NC(=O)[C@H](CCC(=O)O)NC(=O)[C@H](Cc1ccc(O)cc1)NC(=O)[C@H](CO)NC(=O)[C@H](CC(N)=O)NC(=O)[C@H](Cc1ccccc1)NC(=O)[C@H](CO)NC(=O)[C@@H](N)CSSC[C@H](N)C(=O)N[C@@H](Cc1ccc(O)cc1)C(=O)NCC(=O)N[C@@H](CCCNC(=N)N)C(=O)N[C@@H](CCCCN)C(=O)N[C@@H](CCCCN)C(=O)N[C@@H](CCCNC(=N)N)C(=O)N[C@@H](CCCNC(=N)N)C(=O)N[C@@H](CCC(N)=O)C(=O)N[C@@H](CCCNC(=N)N)C(=O)N[C@@H](CCCNC(=N)N)C(=O)N[C@@H](CCCNC(=N)N)C(=O)O)C(=O)O | inactive | inactive | inactive |
| O=C1CC2OCC=C3CN4CCC56c7ccccc7N1C5C2C3CC46.O=S(=O)(O)O (configuration not stated) | inactive | active | inactive |
| CC1=C2CCC3C4CCC(=O)C4(C)CCC3C2(C)CCC1=O (configuration not stated) | inactive | inactive | inactive |
| CC1OC(OC2CCC3(C=O)C4CCC5(C)C(C6=CC(=O)OC6)CCC5(O)C4CCC3(O)C2)C(O)C(O)C1O (configuration not stated) | active | active | inactive |
| CC12CCC3C(CCC4CC(O)CCC43C)C1CCC2=O (configuration not stated) | inactive | inactive | inactive |
| CNCCc1cnc[nH]1 | inactive | inactive | inactive |
| Cl.NCC(O)c1ccc(O)cc1 (configuration not stated) | inactive | inactive | inactive |
| CC(=O)O[C@@]12CO[C@@H]1C[C@H](O)[C@@]1(C)C(=O)[C@H](O)C3=C(C)[C@@H](OC(=O)[C@H](O)[C@@H](NC(=O)c4ccccc4)c4ccccc4)C[C@](O)([C@@H](OC(=O)c4ccccc4)[C@H]21)C3(C)C | inactive | active | inactive |
| Cl.Cn1c(CCCC(=O)O)nc2cc(N(CCCl)CCCl)ccc21 | inactive | inactive | inactive |
| CN1C[C@H](C(=O)N[C@]2(C)O[C@@]3(O)[C@@H]4CCCN4C(=O)[C@H](Cc4ccccc4)N3C2=O)C=C2c3cccc4[nH]cc(c34)C[C@H]21 | inactive | inactive | inactive |
| NC(=O)CN1CC(O)CC1=O (configuration not stated) | inactive | inactive | inactive |
| [N-]=[N+]=Nc1ccccc1C[C@@]1(C(=O)NCCN2CCOCC2)N=C(c2ccc(OCCCO)cc2)O[C@@H]1c1ccccc1N=[N+]=[N-] | inactive | inactive | inactive |
| CCN1C[C@]2(COC)CC[C@H](O)[C@@]34[C@@H]2[C@@H](OC)[C@@H]([C@@H]13)[C@@]1(OC(C)=O)C[C@H](OC)[C@H]2C[C@H]4[C@@H]1[C@@H]2OC(C)=O | inactive | inactive | inactive |
| O=C(O)c1cc(Cl)ccc1Cl | inactive | inactive | inactive |
| CC(C)(O)C1C2OC(=O)C1C1(O)CC3OC34C(=O)OC2C14C (configuration not stated) | inactive | inactive | inactive |
| CN[C@@H]1[C@@H](O)[C@@H](O[C@@H]2[C@@H](O)[C@H](O[C@H]3O[C@H](CN)CC[C@H]3N)[C@@H](N)C[C@H]2N)OC[C@]1(C)O.CN[C@@H]1[C@@H](O)[C@@H](O[C@@H]2[C@@H](O)[C@H](O[C@H]3O[C@H]([C@@H](C)N)CC[C@H]3N)[C@@H](N)C[C@H]2N)OC[C@]1(C)O.CN[C@@H]1[C@@H](O)[C@@H](O[C@@H]2[C@@H](O)[C@H](O[C@H]3O[C@H]([C@@H](C)NC)CC[C@H]3N)[C@@H](N)C[C@H]2N)OC[C@]1(C)O | inactive | inactive | inactive |
| ClC(Cl)=C(c1ccc(Cl)cc1)c1ccc(Cl)cc1 | inactive | inactive | inactive |
| S=C=Nc1cccc(C2(N3CCCCC3)CCCCC2)c1 | inactive | active | inactive |
| O=C1NC(=S)NC(=O)C1=Cc1ccccc1 | inactive | inactive | inactive |
| COc1cc2c3cc1Oc1c(OC)c(OC)cc4c1[C@@H](Cc1cccc(c1)Oc1ccc(c(O)c1)C[C@@H]3N(C)CC2)N(C)CC4 | inactive | inactive | inactive |
| C[C@H]1CN([C@@H](C)CO)C(=O)CCCn2nncc2CO[C@@H]1CN(C)C(=O)Oc1ccc2ccccc2c1 | inactive | inactive | inactive |
| COC(=O)NC(=S)Nc1ccccc1NC(=S)NC(=O)OC | active | active | inactive |

| Structure (SMILES) | cytotoxicity call (HSkMC) | cytotoxicity call (HepG2) | growth inhibition call (S. aureus RN4220) |
| --- | --- | --- | --- |
| COC(C)(C)CCC[C@H](C)C/C=C/C(C)=C/C(=O)OC(C)C | inactive | inactive | inactive |
| CCCCCCCCCC(=O)O[C@@H]1[C@@H](C)[C@]2(O)[C@@H](C=C(CO)C[C@]3(O)C(=O)C(C)=C[C@@H]23)[C@@H]2C(C)(C)[C@@]12OC(=O)CCCCCCCCC | active | active | inactive |
| NCCc1ccc(O)cc1 | inactive | inactive | inactive |
| COc1ccc(OC)c(C(O)C(C)N)c1.Cl (configuration not stated) | inactive | active | inactive |
| CN1CCc2cc3c(cc2C1C1OC(=O)c2c1ccc1c2OCO1)OCO3 (configuration not stated) | inactive | inactive | inactive |
| Cc1n[nH]c(=O)nc1N1CCN(C)CC1 | inactive | inactive | inactive |
| CCCN1CC(CSC)CC2c3cccc4[nH]cc(c34)CC21.CS(=O)(=O)O (configuration not stated) | inactive | inactive | inactive |
| O=C1NCC2(CNC2)O1 | inactive | inactive | inactive |
| CC(=O)OCC1=C(C(=O)O)N2C(=O)[C@@H](NC(=O)CCC[C@@H](N)C(=O)O)[C@@H]2SC1 | inactive | inactive | inactive |
| C[C@H]1C[C@H]2CNCC[C@@H]2O1 | inactive | inactive | inactive |
| O=C([O-])Cc1ccccc1.[Na+] | inactive | inactive | inactive |
| N[C@@H](c1ccccc1)[C@H](O)c1ccccc1 | inactive | inactive | inactive |
| COCCCNC(=O)[C@@]1(Cc2ccccc2N=[N+]=[N-])N=C(c2ccc(OCCCO)cc2)O[C@H]1c1ccccc1N=[N+]=[N-] | inactive | inactive | inactive |
| COc1c2c(cc3c1OCO3)CC[N+](C)=C2.[Cl-] | inactive | inactive | inactive |
| CC(=O)O[C@H]1C[C@@H](OC(C)=O)C(C)(C)[C@@H]2C[C@@H](OC(C)=O)[C@]3(C)[C@H](CC[C@@]4(C)[C@H](c5ccoc5)C[C@H]5O[C@@]534)[C@@]12C | inactive | inactive | inactive |
| NC(N)=NOCC[C@H](N)C(=O)O | inactive | inactive | inactive |
| Nc1nc(Cl)ncc1[N+](=O)[O-] | inactive | inactive | inactive |
| COc1cc(C=O)cc(OC)c1OC | inactive | inactive | inactive |
| Nc1nc(=O)c2ncn([C@H]3O[C@@H](COP(=O)(O)OP(O)(O)=S)[C@H](O)[C@@H]3O)c2[nH]1 | inactive | inactive | inactive |
| O=[N+]([O-])C(Br)(CO)CO [listing 2 of 2 here] | active | active | active |
| CC[C@@H](N)[C@@H](O)c1ccc(O)c(O)c1 | active | inactive | inactive |
| CC12CCC(O)CC1CCC1C2CC(O)C2(C)C(C3=CC(=O)OC3)CCC12O (configuration not stated) | active | active | inactive |
| O=c1cccc2n1C[C@@H]1C[C@H]2CN(CCO)C1 | inactive | inactive | inactive |
